{
  "source": "PubChem BioAssay AID493208",
  "about": "(National Center for Advancing Translational Sciences (NCATS), 2011)",
  "note": "Among all 44,000 compounds or so, about 340 (0.77%) were called active. Not shown: some 5% with an inconclusive outcome. Calls follow the shape of the dose curve; as a rule, active = well fitted inhibition curve with a large enough effect; inconclusive = small, poorly fitted or top-dose-only effect; inactive = flat fitted curve, though single readings scatter. The list shows a part of the results. Potency is read from the fitted curve at half-maximal effect.",
  "data": [
    {"test": "Acumen qHTS Assay for Inhibitors of the mTORC1 Signaling Pathway in MEF (Tsc2-/-, p53-/-) Cells: Sytravon; also: nearly all actives have a fitted effect of over 50% in size;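 as to activity change, negative = inhibition: plate controls were DMSO for no effect and rapamycin for full effect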", "settings": "phospho-rpS6 immunofluorescence/PI, 24 h; series mostly up to 38.3 µM; activity change, negative = inhibition: at the top concentration", "method_in_brief": "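Tsc2-/-, p53-/- MEFs (empty-vector stable line) in DMEM + 10% FBS were treated with compounds 24 h at 37 degree Celsius, fixed, and immunostained for phospho-rpS6 (Alexa-488) with propidium iodide counterstain. Laser-scanning cytometry gave % positive cells, normalized against 7.5 nM rapamycin and DMSO.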", "values": [
      {"smiles": "Cc1cc(C)cc(NC(=O)CCn2cnc3ccccc3c2=O)c1", "activity change, negative = inhibition": "inactive: -16.9%"},
      {"smiles": "CCc1cccc(NC(=O)CC(c2ccc(OC)cc2)N2Cc3ccccc3C2=O)c1", "note": "(stereo not given)", "activity change, negative = inhibition": "inactive: -19.5%"},
      {"smiles": "CC(C)c1ccc(C2NC(=O)c3c(sc4c3CCN(C)C4)N2)cc1", "note": "(stereo not given)", "activity change, negative = inhibition": "inactive: 0.657%"},
      {"smiles": "Cc1ccc(-n2nnnc2SCC(=O)NCCc2ccccc2)cc1C", "activity change, negative = inhibition": "inactive: -2.73%"},
      {"smiles": "COc1ccc(NC(=O)c2ccc(NC(=O)CCS(=O)(=O)c3cccs3)cc2)cc1Cl", "activity change, negative = inhibition": "inactive: 0.283%"},
      {"smiles": "CCOc1ccc(N(CC(=O)OC)S(=O)(=O)c2ccc3c(c2)n(C)c(=O)c(=O)n3C)cc1", "activity change, negative = inhibition": "inactive: -0.818%"},
      {"smiles": "CCC(C)NC(=O)Cn1c(=O)n(-c2ccc(Cl)cc2)c(=O)c2c3c(sc21)CCCC3", "note": "(stereo not given)", "activity change, negative = inhibition": "inactive: 7.38%"},
      {"smiles": "Cc1ccc(C)c(N2CCN(C(=O)c3c(C)oc4nc(C)nc(N5CCOCC5)c34)CC2)c1", "activity change, negative = inhibition": "inactive: 5.94%"},
      {"smiles": "CCCc1nnc(SCc2cc(=O)c3c(C)cc(C)cc3[nH]2)n1C", "activity change, negative = inhibition": "inactive: 2.33%"},
      {"smiles": "CCc1nnc(NC(=O)CSc2nccn2Cc2ccc(Cl)cc2)s1", "activity change, negative = inhibition": "inactive: -0.654%"},
      {"smiles": "Cc1ccc(OCCCn2c(-c3ccc(Cl)cc3)nc3ccccc3c2=O)cc1C", "activity change, negative = inhibition": "inactive: 1.86%"},
      {"smiles": "O=C(Nc1ccc(F)cc1F)C1CCN(C(=O)c2cnn(-c3ccccc3)c2-n2cccc2)CC1", "activity change, negative = inhibition": "inactive: 0.568%"},
      {"smiles": "O=C(NCC(c1ccc2c(c1)OCO2)N1CCN(c2ccccc2)CC1)c1ccc(F)c(F)c1", "note": "(stereo not given)", "activity change, negative = inhibition": "inactive: 0%"},
      {"smiles": "C=CCC(CC=C)(CNC(=O)C(=O)Nc1ccc(Br)cc1)c1ccc(OC)c(OC)c1", "activity change, negative = inhibition": "inactive: 1.49%"},
      {"smiles": "O=C(NCc1cccc(Cl)c1)c1cnc(N2CCOCC2)c2ccccc12", "activity change, negative = inhibition": "inactive: -12.1%"},
      {"smiles": "CCOc1ccc(NS(=O)(=O)c2c(C)nc3sc(CC)nn3c2=O)cc1", "activity change, negative = inhibition": "inactive: 3.34%"},
      {"smiles": "COCCNC(=O)c1ccc2c(c1)ncn2-c1cc(C)ccc1OC", "activity change, negative = inhibition": "inactive: -1.54%"},
      {"smiles": "CCc1ccc(CNC(=O)Cn2nc(C)c3nn(-c4ccc(Cl)cc4)c(C)c3c2=O)cc1", "activity change, negative = inhibition": "inactive: -5%"},
      {"smiles": "Cn1cccc1-c1cc2n(n1)CCC(=O)N2CCCC(=O)NCc1cccc(Cl)c1", "activity change, negative = inhibition": "inactive: 2.01%"},
      {"smiles": "Cc1ccc(C(=O)Nc2cc(-c3cn4cccnc4n3)ccc2C)cc1C", "activity change, negative = inhibition": "inactive: 2.62%"},
      {"smiles": "Cc1nnc(NC(=O)CSc2nccn2Cc2ccccc2)s1", "activity change, negative = inhibition": "inactive: -15%"},
      {"smiles": "CSCCC(NS(=O)(=O)c1ccc2c(c1)oc(=O)n2C)C(=O)NCc1ccc(Cl)cc1", "note": "(stereo not given)", "activity change, negative = inhibition": "inactive: 0.312%"},
      {"smiles": "Cc1ccc(C)c(NC(=O)c2nc(S(=O)(=O)Cc3ccc(F)cc3)ncc2Cl)c1", "Potency": "active: 2070 nM"},
      {"smiles": "CCc1ccccc1S(=O)(=O)Cc1ccc(C(=O)NCCc2ccc(Cl)cc2)o1", "activity change, negative = inhibition": "inactive: -4.36%"},
      {"smiles": "O=C(Nc1cc(-c2cccc(Cl)c2)nn1-c1ccccc1)c1ccccc1F", "activity change, negative = inhibition": "inactive: 2.9%"},
      {"smiles": "CCS(=O)(=O)c1ncc(N(Cc2ccccc2)Cc2ccco2)c(C(=O)Nc2ccccc2C)n1", "activity change, negative = inhibition": "inactive: 0.606%"},
      {"smiles": "O=C(Cc1ccc(Cl)cc1)NCCc1csc2nc(-c3ccccc3F)nn12", "activity change, negative = inhibition": "inactive: -2.75%"},
      {"smiles": "Cc1cc(F)ccc1Nc1nc2ccc(Cl)cc2n2cnnc12", "activity change, negative = inhibition": "inactive: 0.766%"},
      {"smiles": "CCC(C)(C)NC(=O)C(NS(=O)(=O)c1cccs1)c1ccccc1", "note": "(stereo not given)", "activity change, negative = inhibition": "inactive: -12%"},
      {"smiles": "CCOC(=O)c1ccc(-n2c(CCC(=O)O)ccc2-c2ccccc2)cc1O", "activity change, negative = inhibition": "inactive: 0.241%"},
      {"smiles": "CC(CC(=O)Nc1ccc(F)cc1)S(=O)(=O)c1cc2c3c(c1)CCN3C(=O)CC2", "note": "(stereo not given)", "activity change, negative = inhibition": "inactive: 0%"},
      {"smiles": "COc1ccc(N2CCN(C(=O)C(CC(C)C)NS(=O)(=O)c3ccc4nc(C)sc4c3)CC2)cc1", "note": "(stereo not given)", "activity change, negative = inhibition": "inactive: 0.176%"},
      {"smiles": "CNc1ccc(-c2nc(-c3ccncc3)no2)cc1[N+](=O)[O-]", "activity change, negative = inhibition": "inactive: -5.18%"},
      {"smiles": "COC(=O)c1ccccc1NC(=O)CSc1nc2ccccc2nc1Cc1ccc(F)cc1", "activity change, negative = inhibition": "inactive: 1.64%"},
      {"smiles": "O=C(NC1CCCCC1)c1ccc2c(c1)N(Cc1cccc(Cl)c1)C(=O)c1ccccc1S2(=O)=O", "activity change, negative = inhibition": "inactive: -1.34%"},
      {"smiles": "Cc1ccc(CNc2cc(C)nc3nc(-c4ccc(C)cc4)nn23)cc1", "activity change, negative = inhibition": "inactive: -2.48%"},
      {"smiles": "COc1ccc(CNC(=O)CCc2c(C)nc3cc(-c4ccc(OC)cc4OC)nn3c2C)cc1", "activity change, negative = inhibition": "inactive: 0.985%"},
      {"smiles": "Cc1cccc(NC(=O)Cn2c(=O)n(CC3CCC(C(=O)NCCc4ccccc4)CC3)c(=O)c3ccccc32)c1", "note": "(stereo not given)", "activity change, negative = inhibition": "inactive: 0.0571%"},
      {"smiles": "Fc1ccc(Nc2nc(-c3cccc(Cl)c3)c3c(n2)-c2ccccc2OC3)c(F)c1", "activity change, negative = inhibition": "inactive: -0.848%"},
      {"smiles": "Fc1ccc(-c2cc(-c3ccc(F)cc3)c3c(n2)-c2cc(F)ccc2OC3)cc1", "activity change, negative = inhibition": "inactive: 6.6%"},
      {"smiles": "CCOc1ccc2nc(N3CCCC(C(=O)Nc4ccccc4CC)C3)sc2c1", "note": "(stereo not given)", "activity change, negative = inhibition": "inactive: -0.71%"},
      {"smiles": "CCc1ccc(NC(=O)CSc2nc(-c3ccc(C)cc3)nc3c2Cc2c(CO)cnc(C)c2O3)cc1", "activity change, negative = inhibition": "inactive: -3.24%"},
      {"smiles": "CCOC(=O)c1cc(-c2ccc(F)cc2)n(CCC(=O)NC2CCC(C)CC2)c1C", "note": "(stereo not given)", "activity change, negative = inhibition": "inactive: -0.185%"},
      {"smiles": "CCc1ccc(-c2nc3cc(NC(=O)c4ccc(C)c(C)c4)ccc3o2)cc1", "activity change, negative = inhibition": "inactive: -5.88%"},
      {"smiles": "Cc1c(NC(=O)c2cccs2)cccc1-c1nc2cc(Cl)ccc2o1", "activity change, negative = inhibition": "inactive: -3.31%"},
      {"smiles": "COc1ccc(S(=O)(=O)n2nc(-c3ccco3)nc2NCc2ccc(C(C)C)cc2)cc1", "activity change, negative = inhibition": "inactive: -1.86%"},
      {"smiles": "CCOc1ccc(NC(=O)c2nc(S(=O)(=O)Cc3ccccc3F)ncc2Cl)cc1", "Potency": "active: 3690 nM"},
      {"smiles": "O=C(NCCCN1CCN(c2ccccc2F)CC1)c1ccc2nc(CCc3ccccc3)oc2c1", "activity change, negative = inhibition": "inactive: -12.5%"},
      {"smiles": "CCOc1ccc(C(=O)Nc2ccc(OCc3cc(=O)n4cccc(C)c4n3)cc2)cc1", "activity change, negative = inhibition": "inactive: 0.189%"},
      {"smiles": "CC(=O)NCCNC(=O)CCCc1nnc2n(CC(C)C)c(=O)c3sccc3n12", "activity change, negative = inhibition": "inactive: -3.33%"},
      {"smiles": "COc1ccc(-c2cc(-c3nc(-c4cc(OC)c(OC)c(OC)c4)no3)[nH]n2)c(OC)c1", "activity change, negative = inhibition": "inactive: -18.3%"},
      {"smiles": "CCc1nnc2c3ccccc3nc(Nc3cc(C)cc(C)c3)n12", "activity change, negative = inhibition": "inactive: -13.8%"},
      {"smiles": "COc1ccc(S(=O)(=O)NCc2cccn2Cc2cc(C)ccc2C)cc1OC", "activity change, negative = inhibition": "inactive: 6.49%"},
      {"smiles": "COc1cccc(NC(=O)Cn2c(=O)n(Cc3ccc(F)cc3)c(=O)c3sc4ccccc4c32)c1", "activity change, negative = inhibition": "inactive: 2.22%"},
      {"smiles": "CCOc1ccc(CCNC(=O)c2c(C)oc3ncn(CC(C)C)c(=O)c23)cc1OCC", "activity change, negative = inhibition": "inactive: -3.2%"},
      {"smiles": "CC(=O)N1CCc2c(sc3c2c(=O)n(-c2ccccc2)c(=O)n3CC(=O)Nc2cc(C)cc(C)c2)C1", "activity change, negative = inhibition": "inactive: -3.1%"},
      {"smiles": "Cc1ccc(-n2nc(C(=O)N3CCN(c4ccccc4F)CC3)c(=O)n(C)c2=O)cc1", "activity change, negative = inhibition": "inactive: 2.83%"},
      {"smiles": "CCCCCc1ccc(-c2ccc(Br)cc2)nc1", "activity change, negative = inhibition": "inactive: -8.61%"},
      {"smiles": "O=C(NCc1ccccc1F)C(=O)NCC(c1ccc2c(c1)OCO2)N1CCOCC1", "note": "(stereo not given)", "activity change, negative = inhibition": "inactive: -1.07%"},
      {"smiles": "CCc1ccc(NC(=O)CSc2nc(C)c(C(=O)Nc3ccccc3)c(-c3ccc(OC)c(OC)c3)c2C#N)cc1", "activity change, negative = inhibition": "inactive: 0.28%"}
    ]}
  ]
}
